Measurements reported in paper PMC5505701, “Somatostatin binds to the human amyloid β peptide and favors the formation of distinct oligomers” (eLife, 2017).

test system: oligomeric Aβ1-42 (biotin-oAβ1-42 bait); conditions: Experiment I, biotin-oAbeta 1-42 (TMT 126) versus biotin (TMT 131), replicate channel 126

Row | Substance | 126/131
1 | 14-3-3 protein epsilon: human brain protein | 1.520

same assay, conditions: Experiment I, biotin-oAbeta 1-42 (TMT 128) versus biotin (TMT 131), replicate channel 128

Row | Substance | 128/131
2 | 14-3-3 protein epsilon: human brain protein | 1.029

same assay, conditions: Experiment I, biotin-oAbeta 1-42 (TMT 130) versus biotin (TMT 131), replicate channel 130

Row | Substance | 130/131
3 | 14-3-3 protein epsilon: human brain protein | 1.646

same assay, conditions: enrichment relative to biotin-only saturated negative control matrix; human frontal lobe digitonin extract; TMT, three biological replicates; pH 8.0, 4°C overnight

Row | Substance | Experiment I B-oAβ1-42/B Ratio
4 | Isocitrate dehydrogenase [NADP] cytoplasmic: human brain protein | 8.20
5 | Interleukin enhancer-binding factor 2: human brain protein | 4.98
6 | ATP synthase subunit beta, mitochondrial: human brain protein | 8.59
7 | Ubiquitin carboxyl-terminal hydrolase L1: human brain protein | 7.49
8 | Carbohydrate kinase domain-containing protein: human brain protein | 6.95
9 | Tubulin beta-3 chain: human brain protein | 5.39
10 | DnaJ homolog subfamily A member 2: human brain protein | 5.28
11 | Pyruvate kinase isozymes M1/M2: human brain protein | 7.04
12 | Ras-related protein Rab-1A: human brain protein | 10.52
13 | Cofilin-1: human brain protein | 4.67
14 | Dihydropyrimidinase-related protein 3: human brain protein | 5.13
15 | Transforming protein RhoA: human brain protein | 7.48
16 | 2,4-dienoyl-CoA reductase, mitochondrial: human brain protein | 7.74
17 | Cathepsin D: human brain protein | 5.52
18 | Dihydropyrimidinase-related protein 1: human brain protein | 5.21

same assay, conditions: experiment not given

Row | oAβ1-42 binding observed (in words) | Substance
19 | oAβ1-42 binders observed in this work | clusterin: human brain protein, known Aβ interactor
